{"source": "the supplement of paper PMC11417369", "note": "This is one part of the list.", "data": [{"test_system": "PfSIP2 AP2 domain 1 (GST-tagged)", "assay": "gcPBM binding intensity (ln(normalized median fluorescence intensity)); higher = stronger DNA binding", "procedure,_shortened": "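DNA-binding domains from P. falciparum, fused to GST and produced in E. coli, were put on an Agilent 4 × 180k double-stranded probe array for 1 h in 1× PBS holding 1% milk, 0.2 mg/ml BSA, 0.5% salmon testes DNA and 0.03% Triton X-100. Probes were primer-extended, 36 bp long and drawn from intergenic genomic regions, with negative controls included. After Alexa488 anti-GST antibody detection and a 488 nm scan, binding intensity was set as the highest Masliner-normalised natural-log median intensity across replicate spots of either probe orientation.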", "values": [{"sequence": "ATTTTCCTTTTACCACGTACACATAAAAACGTTATA [XGTACX_site3595]", "gcPBM binding intensity (ln)": 7.49}, {"sequence": "AAAAAAAATCAAATGGGTACTTATTCTTAATAATAT [XGTACX_site3792]", "gcPBM binding intensity (ln)": 7.04}, {"sequence": "ATAAATATATTTAAATGTACATAATATATATATATA [XGTACX_site5137]", "gcPBM binding intensity (ln)": 8.95}, {"sequence": "TATATATATTTAAAGGTGCAGATGCCAGTGTATATT", "gcPBM binding intensity (ln)": 10.1}, {"sequence": "AATGAACTCACGAGCACACACACACCGATATATATA [CACACA_site4710]", "gcPBM binding intensity (ln)": 7.49}, {"sequence": "ATATATACATACAAATTAATTACGAGGAATATATTA [XGTACX_negctrl_site417]", "gcPBM binding intensity (ln)": 6.86}, {"sequence": "ACATATTCATATGGAAGTACGATAATGTAGTCATAT [XGTACX_site7080]", "gcPBM binding intensity (ln)": 6.83}, {"sequence": "TATACATATATATACACACACACATATATATATATA [CACACA_site1299]", "gcPBM binding intensity (ln)": 9.32}, {"sequence": "GGAACTTATTTTTATACACACATATGTGCATATTAT [CACACA_site629]", "gcPBM binding intensity (ln)": 7.64}, {"sequence": "GTAAAAAAATTAAAAATTAACAAGGAATTAAGTATA [CACACA_negctrl_site1688]", "gcPBM binding intensity (ln)": 6.65}, {"sequence": "ATCATAAATATAGCAACACACGGATTACATAAAATA [CACACA_site2796]", "gcPBM binding intensity (ln)": 7.08}, {"sequence": "TTAAAAAAATAATTAACACACACATGTATATCTATA [CACACA_site9026]", "gcPBM binding intensity (ln)": 6.82}, {"sequence": "TTGTAATAAATAAAAGTGCAGATATGGTTCCACTAA [GTGCAC_site9942]", "gcPBM binding intensity (ln)": 7.85}, {"sequence": "TGAATAAATATATATACACACATATCTGTATTTATT [CACACA_site4991]", "gcPBM binding intensity (ln)": 7.01}, {"sequence": "TATATATATACCAACACACATACATATATATATATA [CACACA_site1795]", "gcPBM binding intensity (ln)": 9.23}, {"sequence": "AAATTTGGCAGACACACACACACACGCACACGCACA [CACACA_site6423]", "gcPBM binding intensity (ln)": 8.2}, {"sequence": "CCCTCCCCATGTTTAGTGCAAAAATATTTGAAATTG [GTGCAC_site9873]", "gcPBM binding intensity (ln)": 8.61}, {"sequence": "TATGAAATTAGAATTACACACAGGAAAATAAAATGC [CACACA_site6822]", "gcPBM binding intensity (ln)": 7.33}, {"sequence": "ATATTACGCACAAAAAAAAAAAAAAAAAAAAAAAAA [CACACA_negctrl_site941]", "gcPBM binding intensity (ln)": 7.41}, {"sequence": "AAAATTAAAATTTTCACACAGATATATTTACAATTT [CACACA_site5692]", "gcPBM binding intensity (ln)": 6.66}, {"sequence": "ATGATGTGCTTTAAAAGTACTTAAGTTATATTCTTT [XGTACX_site7127]", "gcPBM binding intensity (ln)": 6.86}, {"sequence": "TAAATTAAAAAAAATACACACACACCGACACATATA [CACACA_site9084]", "gcPBM binding intensity (ln)": 7.12}, {"sequence": "AAAAAGAAGAATAATACACACAAATTACTTTATATA [CACACA_site6984]", "gcPBM binding intensity (ln)": 6.7}, {"sequence": "TTCGTAACTGATTCAACACACAAAAGGGGGAAAATT [CACACA_site1754]", "gcPBM binding intensity (ln)": 8.03}, {"sequence": "ATATATATATATATGTGTACATATATTAAGATATAT [XGTACX_site1065]", "gcPBM binding intensity (ln)": 9.25}, {"sequence": "AATTACAAATATTCATGTACATATTTATAAATACAT [XGTACX_site5430]", "gcPBM binding intensity (ln)": 7.1}, {"sequence": "ATATTATAGAAATATACACACATTGTTTTATAGCAT [CACACA_site7177]", "gcPBM binding intensity (ln)": 6.82}, {"sequence": "TATGTTATATAATATTGTACACAAAATGGTTTCTAT [XGTACX_site7686]", "gcPBM binding intensity (ln)": 7.17}, {"sequence": "AGGTATGTCTATAAATGTACATATGAGTTCAATTTC [XGTACX_site2244]", "gcPBM binding intensity (ln)": 6.96}, {"sequence": "CACAGTGATATAAAAACACACATGAATTCTAATTTC [CACACA_site6884]", "gcPBM binding intensity (ln)": 6.83}, {"sequence": "CATAAAAATATTAATAAACACACAATCAGATATTGA [CACACA_site9032]", "gcPBM binding intensity (ln)": 6.87}, {"sequence": "AAATATATATAAACAAGTACATATTTAAAAAAAGGA [XGTACX_site2631]", "gcPBM binding intensity (ln)": 7.21}, {"sequence": "ATATATATGAAACACACACACAAAAAAAAAAAAAAA [CACACA_site3647]", "gcPBM binding intensity (ln)": 7.11}, {"sequence": "ATAACACAAAATTGTTGTACACGTGTTAATAAGTGA [XGTACX_site4452]", "gcPBM binding intensity (ln)": 7.12}, {"sequence": "TAAAGTTATGCAATAACACACATATACAATACATAT [CACACA_site6698]", "gcPBM binding intensity (ln)": 6.9}, {"sequence": "AATATTTATATAAATGCATGCTGATACAACAGTCTT [TGCATGCA_site21]", "gcPBM binding intensity (ln)": 6.79}, {"sequence": "TATATAACCGAGTGCACACACAAAAAAAAAGTGAAC [CACACA_site6806]", "gcPBM binding intensity (ln)": 11.1}, {"sequence": "TATTAAATATTGTATACATGCAAATACTAGAAAATT [TGCATGCA_site370]", "gcPBM binding intensity (ln)": 7.04}, {"sequence": "AATAATATAAATATTACACACTAATTGTATTATAGA [CACACA_site6347]", "gcPBM binding intensity (ln)": 6.79}, {"sequence": "TAAAATGAATATAGGTGTACTTAAAAAAAAGTAAAA [XGTACX_site4613]", "gcPBM binding intensity (ln)": 7.08}, {"sequence": "TAAATTCTTTATAATCGTACATAAATAGAAAAATAA [XGTACX_site601]", "gcPBM binding intensity (ln)": 7.15}, {"sequence": "TAAAAGAAATAATATACACACATATATAAAAATAAA [CACACA_site1329]", "gcPBM binding intensity (ln)": 6.86}, {"sequence": "TATCGAGCCATTTTTACATGCAATTATACATAATTT [TGCATGCA_site987]", "gcPBM binding intensity (ln)": 7.02}, {"sequence": "TTCAAATAATTTAAATGTACGTTGCTTTATTAAAAG [XGTACX_site3674]", "gcPBM binding intensity (ln)": 6.85}, {"sequence": "CATGTATACTATAATACACACTATAAAATATACACC [CACACA_site7121]", "gcPBM binding intensity (ln)": 7.16}, {"sequence": "ATGATGAAAATAGAAATACACACTAAAAAATAAAAT [CACACA_site1136]", "gcPBM binding intensity (ln)": 6.86}, {"sequence": "ATAAATAATAAAAAATGTACACATATAAATATAAAG [XGTACX_site727]", "gcPBM binding intensity (ln)": 7.11}, {"sequence": "AAAACATGTTCAACATGTACACAACAGGATGAATAT [XGTACX_site506]", "gcPBM binding intensity (ln)": 7.14}, {"sequence": "AAATATATGTTATATGTGCACTTTTTTTTTTTTTTT [GTGCAC_site9667]", "gcPBM binding intensity (ln)": 10.4}, {"sequence": "CTTACTTACTTACTCACACACATATACAAAGAAAAA [CACACA_site3347]", "gcPBM binding intensity (ln)": 7.56}, {"sequence": "TTTTACTAAATATATACACACATTATACATATATAT [CACACA_site9081]", "gcPBM binding intensity (ln)": 7.1}, {"sequence": "GAATGCATGTAAATATGTACATATATTTAAAAATTT [XGTACX_site6032]", "gcPBM binding intensity (ln)": 7.02}, {"sequence": "TGTTAAAAGGTTAAATTAAAATAACCTCCGGAAATT [GTGCAC_negctrl_site236]", "gcPBM binding intensity (ln)": 6.63}, {"sequence": "ATAAATATATATTTACGTACATATTATATATATATA [XGTACX_site6172]", "gcPBM binding intensity (ln)": 8.75}, {"sequence": "AAAAAAATTTCACATTGTACTTTAATAATATACTAC [XGTACX_site7264]", "gcPBM binding intensity (ln)": 6.99}, {"sequence": "ACATATAAATTGTGTACACATATATATATATTTTTT [CACACA_site5946]", "gcPBM binding intensity (ln)": 7.58}, {"sequence": "GTTTTGTACATATTCTCACACATATAAAAATACCCA [CACACA_site4446]", "gcPBM binding intensity (ln)": 7.47}]}]}
